Source: US20210171576A1, “METHODS FOR TREATING CANCER WITH ACYLDEPSIPEPTIDE ANALOGS” (priority 2018, published 2021)

Columns and labels:
[1] = test system: HEK293 T-REx ΔCLPX* cells; assay: Cytotoxicity, SRB staining, CLPX-disrupted cells; conditions: HsCIpX expression reduced by ≥97%
[2] = test system: HEK293 T-REx WT cells; assay: Cellular respiration analysis (Seahorse XF, OXPHOS); format: cell-based, human; conditions: 1 μM, 24 hours, relative to DMSO-treated WT cells
[3] = molecular target: T1, HsCIpP (Homo sapiens, UniProt Q16740, P57S); assay: Protease activity assay (casein-FITC degradation) with ADEP, independent of HsCIpX; format: biochemical; conditions: 3 μM HsCIpP
T1 construct: 2x(His6-thrombin)-SUMO (N, cleaved yes); made in house; host or cells: E. coli (SG1146 stated for HsClpP; 'a similar protocol' for HsClpX)
T1 sequence (Q16740 57-277 P57S): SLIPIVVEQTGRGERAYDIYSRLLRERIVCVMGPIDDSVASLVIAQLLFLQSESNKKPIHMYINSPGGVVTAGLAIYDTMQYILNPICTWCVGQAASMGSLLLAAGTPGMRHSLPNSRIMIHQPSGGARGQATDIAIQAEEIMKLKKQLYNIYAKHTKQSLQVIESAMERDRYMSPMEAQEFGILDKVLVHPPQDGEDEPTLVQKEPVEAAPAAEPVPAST
Method: The protease activity of purified HsCIpP was assessed by monitoring the degradation of bovine milk casein labelled with fluorescein isothiocyanate (casein-FITC) (Sigma-Aldrich) in the presence of ADEP and/or purified HsCIpX. All reactions were carried out in 25 mM HEPES, pH 7.5, 35 mM KCl, 25 mM MgCl2, 0.03% Tween-20, 10% glycerol, and 1 mM DTT, supplemented with 16 mM creatine phosphate and 300 μM ATP. HsCIpP was used at 3 μM (final monomeric concentration) and casein-FITC was added at the final concentration of 10 μM. 13 U of creatine phosphokinase (Sigma-Aldrich) was also added for ATP regeneration. DMSO was present at 1% (v:v) final concentration in the experiments that involve the use of ADEP analogs. All reactions were carried out with 150 μL of the reaction mix per well in a 96-well black flat-bottom plate at 37° C. Degradation of casein-FITC and subsequent release of the free FITC moiety was monitored by fluorescence with λex=494 nm and λem=518 nm using the EnSpire 2300 Multilabel Reader set to perform a reading every 40 s with 20 flashes. A total of 100 readings were collected in each experiment. […]
The effect of ADEP in activating HsCIpP was assessed via the degradation of casein-FITC by HsCIpP independent of HsCIpX. […] Initial rates data were collected and analyzed using the Hill equation above to determine Vmax, h and K0.5 for each ADEP analog. […]

Structure (SMILES): CCCC/C=C/C(=O)N[C@@H](Cc1cc(F)cc(F)c1)C(=O)N[C@@H]1C(=O)N2CCC[C@H]2C(=O)N2CC[C@H](C)C[C@H]2C(=O)N[C@@H](C)C(=O)N2CCC[C@H]2C(=O)O[C@H]1C [ADEP-28] ({Heptenoyl(2E)}-[Phe(3,5-F2)][aThr]P[Pip(4S-Me)]AP; ester 2-C)
- impact of reduced HsCIpX levels on sensitivity [1]: no statistically significant impact
- reduction in oxygen consumption rate (OCR) associated with ATP synthase activity [2]: ~91%
- reduction in oxygen consumption rate (OCR) associated with basal respiration [2]: ~86%
- Kd ([3]; 10 μM casein-FITC, no HsCIpX, read-out: K0.5 (microscopic apparent dissociation constant), protease activity): 120 nM
- Hill coefficient, protease activity ([3]; casein-FITC, among five ADEP analogs): highest Hill coefficient

Where a SMILES comes first, the peptide text is derived from it. Bridges are numbered along the chain shown (N, C = ends). [ ]: non-standard residue; d: D form. The star is where a group is joined. Phe(3,5-F2) = N[C@@H](Cc1cc(F)cc(F)c1)C(=O)O; Pip(4S-Me) = C[C@H]1CCN[C@H](C(=O)O)C1; Heptenoyl(2E) = CCCC/C=C/C(=O)*; aThr = C[C@H](O)[C@H](N)C(=O)O
